Laboratory results as given in the supplement of paper PMC10126150.
Values marked as one replicate rest on one cluster of the flow cell; about a third of the high ones do not repeat.
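Also: ATP exposure 15 min at 22 °C before imaging.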

These sequences were tested on ATP (assay: switch fluorescence ratio, 500 uM ATP over buffer (Cy3 cluster intensity, sum of 5 cycles each) (fold (ratio)); higher = stronger signal-on switching upon ATP binding; sequences stand for … in TCGTCGGCAGCGTCAGATGTGTATAAGAGACAGTTTTTTTTTTTTTTTTTTTTTTTTT…TC). Details: aptamer strand: ATP DNA aptamer (quencher-CACCTGGGGGAGTATTGCGGAGGAAGG + anchor), 100 nM annealed; ATP concentration: 500 uM; one replicate.
Procedure, shortened: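 Imaging in selection buffer was followed by imaging after 15 min with 500 uM ATP at 22 °C, for Cy3-labelled switching-strand clusters annealed to 100 nM quencher-labelled ATP aptamer on a modified Illumina MiSeq flow-cell. Five of these buffer/ATP cycles ran, separated by NaOH stripping and re-annealing. The fluorescence ratio per cluster is summed target-cycle over summed buffer-cycle Cy3 intensity, averaged per switch-domain sequence; clusters outside 100-1000 RFU were removed.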
AGCCCGCTGG showed a switch fluorescence ratio of 1.07. AGCCCGGTAT gave a switch fluorescence ratio of 1.25. With AGCCGACCGC the switch fluorescence ratio was 1.35. For AGCCGAGTGG, the switch fluorescence ratio was 0.96. With AGCCGATGAT the switch fluorescence ratio was 1. Work on AGCCGCTGAA yielded a switch fluorescence ratio of 1.1. Sequence AGCCGGATTA has a switch fluorescence ratio of 0.991. Sequence AGCCGGCCGC has a switch fluorescence ratio of 0.983. With AGCCGGGCAC the switch fluorescence ratio was 1.03. With AGCCGGGTA the switch fluorescence ratio was 1.01. For AGCCTCCCAC, the switch fluorescence ratio was 2.99. In the case of AGCCTCGTTG, the switch fluorescence ratio is reported as 1. In the case of AGCCTGAACG, the switch fluorescence ratio is reported as 1.03. For AGCCTGTGTT, the switch fluorescence ratio was 0.986. Work on AGCCTTATGG yielded a switch fluorescence ratio of 1.03. For AGCGAAAATT, the switch fluorescence ratio was 1.01. Work on AGCGAACCCT yielded a switch fluorescence ratio of 1.12. In the case of AGCGACGCCT, the switch fluorescence ratio is reported as 0.993. Sequence AGCGACGTGT has a switch fluorescence ratio of 0.996. AGCGAGCATT gave a switch fluorescence ratio of 1.01. With AGCGAGGAGT the switch fluorescence ratio was 0.997. Work on AGCGATCAAA yielded a switch fluorescence ratio of 1.03. Sequence AGCGATTCGC has a switch fluorescence ratio of 0.998. Sequence AGCGCAGCAT has a switch fluorescence ratio of 0.969. In the case of AGCGCATGGG, the switch fluorescence ratio is reported as 1.04. In the case of AGCGCCGTGT, the switch fluorescence ratio is reported as 1.01. With AGCGCGCAAT the switch fluorescence ratio was 1.2. In the case of AGCGCGTTAT, the switch fluorescence ratio is reported as 0.996. With AGCGCTCAGA the switch fluorescence ratio was 1. In the case of AGCGCTTTAA, the switch fluorescence ratio is reported as 1.03. In the case of AGCGGAAACC, the switch fluorescence ratio is reported as 1.1. AGCGGAATAA showed a switch fluorescence ratio of 1.38. AGCGGACCAG was tested, and the switch fluorescence ratio was 0.988. Work on AGCGGAGG yielded a switch fluorescence ratio of 0.994. Sequence AGCGGGAGCC has a switch fluorescence ratio of 0.956. In the case of AGCGGGCGTG, the switch fluorescence ratio is reported as 0.987. AGCGGGGCAA gave a switch fluorescence ratio of 1.07. Work on AGCGGGTGTG yielded a switch fluorescence ratio of 1.04. For AGCGGTATTG, the switch fluorescence ratio was 0.964. Work on AGCGGTCACA yielded a switch fluorescence ratio of 1.03. Sequence AGCGGTGTC has a switch fluorescence ratio of 1.05. Work on AGCGTACGG yielded a switch fluorescence ratio of 1.02. Work on AGCGTGCACT yielded a switch fluorescence ratio of 0.956. For AGCGTGGGTA, the switch fluorescence ratio was 1.02. Work on AGCGTTCGGG yielded a switch fluorescence ratio of 1.01. Sequence AGCGTTTTTA has a switch fluorescence ratio of 0.985. Work on AGCTAAAAGG yielded a switch fluorescence ratio of 0.981. Sequence AGCTAACCGG has a switch fluorescence ratio of 1. For AGCTAATATA, the switch fluorescence ratio was 1.06. Sequence AGCTAATGCA has a switch fluorescence ratio of 1.01. With AGCTACGACG the switch fluorescence ratio was 1.15. Work on AGCTACGCGT yielded a switch fluorescence ratio of 1.01. AGCTACTTTC was tested, and the switch fluorescence ratio was 1.07. AGCTAGCGA was tested, and the switch fluorescence ratio was 1.02. In the case of AGCTAGGACT, the switch fluorescence ratio is reported as 1.08. In the case of AGCTAGTTGA, the switch fluorescence ratio is reported as 0.962. AGCTATTCAT showed a switch fluorescence ratio of 0.988. AGCTCCCGGG was tested, and the switch fluorescence ratio was 1.13. For AGCTCCGGGG, the switch fluorescence ratio was 0.999. With AGCTCGGTTG the switch fluorescence ratio was 0.984. Work on AGCTCTAGAA yielded a switch fluorescence ratio of 0.96. With AGCTCTATCG the switch fluorescence ratio was 1.03. AGCTGAAAAC showed a switch fluorescence ratio of 1.01. AGCTGCGAGG was tested, and the switch fluorescence ratio was 0.931. AGCTGCGCTG gave a switch fluorescence ratio of 0.961. Work on AGCTGCTATG yielded a switch fluorescence ratio of 0.976. AGCTGCTGGT showed a switch fluorescence ratio of 1.01. AGCTGGCCAG showed a switch fluorescence ratio of 1.02. AGCTGGCTTT gave a switch fluorescence ratio of 0.987. In the case of AGCTGGGAGT, the switch fluorescence ratio is reported as 1.04. AGCTGGTCAA gave a switch fluorescence ratio of 1. Work on AGCTGGTCAT yielded a switch fluorescence ratio of 0.981. Sequence AGCTGGTGC has a switch fluorescence ratio of 1.05. AGCTGGTGCC showed a switch fluorescence ratio of 1.07. Sequence AGCTGGTGCT has a switch fluorescence ratio of 1. In the case of AGCTGTCAGC, the switch fluorescence ratio is reported as 1.04. AGCTGTGAAT gave a switch fluorescence ratio of 0.963. Sequence AGCTTAACGG has a switch fluorescence ratio of 1.02. AGCTTAAGTT was tested, and the switch fluorescence ratio was 0.98. AGCTTATACC gave a switch fluorescence ratio of 1.38. Work on AGCTTCATTT yielded a switch fluorescence ratio of 0.997. AGCTTCTTGT was tested, and the switch fluorescence ratio was 1.02. With AGCTTGGATT the switch fluorescence ratio was 1. For AGCTTGGTGT, the switch fluorescence ratio was 0.983. With AGCTTTCCGT the switch fluorescence ratio was 1.07. With AGCTTTTAGG the switch fluorescence ratio was 0.995. Work on AGGAACGGGC yielded a switch fluorescence ratio of 1.08. AGGAAGACGT gave a switch fluorescence ratio of 1. With AGGAAGTCTA the switch fluorescence ratio was 1.1. Work on AGGAATAAC yielded a switch fluorescence ratio of 1.08. Work on AGGACAAACA yielded a switch fluorescence ratio of 1.13. In the case of AGGACAGCTT, the switch fluorescence ratio is reported as 1.01. AGGACGGGTA showed a switch fluorescence ratio of 1.01. For AGGACTTTTA, the switch fluorescence ratio was 1. In the case of AGGAGAAGGT, the switch fluorescence ratio is reported as 0.996. AGGAGAATTT showed a switch fluorescence ratio of 1.02. Sequence AGGAGATTT has a switch fluorescence ratio of 0.993. In the case of AGGAGCCATA, the switch fluorescence ratio is reported as 0.989. AGGAGCTAAA gave a switch fluorescence ratio of 0.973. In the case of AGGAGGCTGT, the switch fluorescence ratio is reported as 1.02. AGGAGGTCAG gave a switch fluorescence ratio of 0.946. Work on AGGAGTGCTT yielded a switch fluorescence ratio of 1.01. For AGGATACTAG, the switch fluorescence ratio was 0.981. With AGGATCTAAA the switch fluorescence ratio was 0.97. AGGATGACAT was tested, and the switch fluorescence ratio was 1.08. Sequence AGGATGAGGC has a switch fluorescence ratio of 0.938. With AGGATGGGCT the switch fluorescence ratio was 0.96. For AGGATGTCGA, the switch fluorescence ratio was 1.01. With AGGATTCAAC the switch fluorescence ratio was 0.989. In the case of AGGATTCAT, the switch fluorescence ratio is reported as 0.979. In the case of AGGATTGCTC, the switch fluorescence ratio is reported as 1. With AGGATTTGTG the switch fluorescence ratio was 1.01. With AGGCACGCGG the switch fluorescence ratio was 1.02. AGGCAGTAGC gave a switch fluorescence ratio of 0.98. Sequence AGGCAGTTAT has a switch fluorescence ratio of 0.963. In the case of AGGCATACCT, the switch fluorescence ratio is reported as 1.03. For AGGCCCCAAG, the switch fluorescence ratio was 1.06. In the case of AGGCCCCAGA, the switch fluorescence ratio is reported as 0.97. Work on AGGCCGAGGC yielded a switch fluorescence ratio of 0.94. With AGGCCGGTAC the switch fluorescence ratio was 1.11. Work on AGGCCTTAGA yielded a switch fluorescence ratio of 1.04. AGGCGAGGT gave a switch fluorescence ratio of 1. In the case of AGGCGAGTCA, the switch fluorescence ratio is reported as 0.994. AGGCGCCAGT gave a switch fluorescence ratio of 1.02. In the case of AGGCGCTAGG, the switch fluorescence ratio is reported as 0.969. AGGCGCTATT was tested, and the switch fluorescence ratio was 0.978. Sequence AGGCGCTGTG has a switch fluorescence ratio of 0.988. In the case of AGGCGGTGCT, the switch fluorescence ratio is reported as 0.965. AGGCGTCTGC was tested, and the switch fluorescence ratio was 1. For AGGCGTTCAC, the switch fluorescence ratio was 1.07. In the case of AGGCTAAGTG, the switch fluorescence ratio is reported as 0.976. Sequence AGGCTGGTAC has a switch fluorescence ratio of 1.06. AGGCTGGTCG gave a switch fluorescence ratio of 0.9. With AGGCTGTCGA the switch fluorescence ratio was 1.03. Work on AGGCTTAGGA yielded a switch fluorescence ratio of 0.958. For AGGGACACCT, the switch fluorescence ratio was 1.04. With AGGGAGACAG the switch fluorescence ratio was 0.987. In the case of AGGGAGCAGC, the switch fluorescence ratio is reported as 1.01. AGGGAGCTAA gave a switch fluorescence ratio of 1.03. With AGGGAGGTAC the switch fluorescence ratio was 0.914. For AGGGATGTCA, the switch fluorescence ratio was 0.998. AGGGATTCGA gave a switch fluorescence ratio of 1.02. AGGGCCACTT showed a switch fluorescence ratio of 0.98. For AGGGCCAGTT, the switch fluorescence ratio was 1.01. Sequence AGGGCCTGAG has a switch fluorescence ratio of 1.02. AGGGCGGGAC showed a switch fluorescence ratio of 1.01. For AGGGCGTTT, the switch fluorescence ratio was 0.991. With AGGGCTAACA the switch fluorescence ratio was 0.958. AGGGCTAGCG showed a switch fluorescence ratio of 1.04. AGGGCTCA was tested, and the switch fluorescence ratio was 1.01. In the case of AGGGCTCACT, the switch fluorescence ratio is reported as 0.961. AGGGCTGTTG gave a switch fluorescence ratio of 1.01. For AGGGGCACTA, the switch fluorescence ratio was 1.02. In the case of AGGGGCTCCC, the switch fluorescence ratio is reported as 1.01. With AGGGGGACGC the switch fluorescence ratio was 1.01. Sequence AGGGGGCCAT has a switch fluorescence ratio of 0.987. Work on AGGGGGCTTG yielded a switch fluorescence ratio of 1. For AGGGGGTCCC, the switch fluorescence ratio was 0.885. Sequence AGGGGTATGA has a switch fluorescence ratio of 1.03. For AGGGTACGGA, the switch fluorescence ratio was 1.05. Work on AGGGTAGAGA yielded a switch fluorescence ratio of 1.05. AGGGTAGGAG gave a switch fluorescence ratio of 0.989. Work on AGGGTAGTTC yielded a switch fluorescence ratio of 1. In the case of AGGGTGAACA, the switch fluorescence ratio is reported as 0.945. AGGGTGACGA was tested, and the switch fluorescence ratio was 1.01. AGGGTGCACA was tested, and the switch fluorescence ratio was 0.991. AGGGTGGCCC was tested, and the switch fluorescence ratio was 0.981. AGGGTGTATG was tested, and the switch fluorescence ratio was 1.01. AGGGTTCAAG was tested, and the switch fluorescence ratio was 0.968. With AGGGTTTC the switch fluorescence ratio was 0.959. With AGGTAAGGGA the switch fluorescence ratio was 0.998. AGGTAAGTCA showed a switch fluorescence ratio of 0.968. Sequence AGGTACTCGT has a switch fluorescence ratio of 1. AGGTACTTGG showed a switch fluorescence ratio of 0.999. For AGGTAGAACG, the switch fluorescence ratio was 0.988. Work on AGGTAGAGAC yielded a switch fluorescence ratio of 1.02. AGGTAGCAGG gave a switch fluorescence ratio of 1.15. For AGGTAGCCGC, the switch fluorescence ratio was 0.994. AGGTAGGTTG was tested, and the switch fluorescence ratio was 1.02. AGGTATTCCG showed a switch fluorescence ratio of 0.883. AGGTATTCTT was tested, and the switch fluorescence ratio was 1.01. AGGTCACACA showed a switch fluorescence ratio of 1.03. AGGTCATAGG showed a switch fluorescence ratio of 1.02. Sequence AGGTCCAGAG has a switch fluorescence ratio of 0.976. Sequence AGGTCCGCTC has a switch fluorescence ratio of 1.55. AGGTCGCTC gave a switch fluorescence ratio of 1.03. Work on AGGTCTACCT yielded a switch fluorescence ratio of 1.03. For AGGTCTGTAG, the switch fluorescence ratio was 1.02. AGGTCTTGCT gave a switch fluorescence ratio of 0.941. For AGGTGACATG, the switch fluorescence ratio was 1.02. In the case of AGGTGAGGCT, the switch fluorescence ratio is reported as 1.02. AGGTGAGTAC showed a switch fluorescence ratio of 0.99. AGGTGCAAGG showed a switch fluorescence ratio of 1. In the case of AGGTGCAGCG, the switch fluorescence ratio is reported as 0.954. Work on AGGTGGCGCG yielded a switch fluorescence ratio of 0.976. AGGTGGCTGG gave a switch fluorescence ratio of 1.01. In the case of AGGTGGTGAT, the switch fluorescence ratio is reported as 0.989. AGGTGGTGTA gave a switch fluorescence ratio of 1.02. Sequence AGGTGTCCTG has a switch fluorescence ratio of 0.999. For AGGTGTTTGA, the switch fluorescence ratio was 1.04.
